Over roughly 33,000 sequences, “E-score (-0.5 to 0.5)” has its median near -0.012; the highest 2% begin near 0.29. This is one part of the list.
Target: T1, Ybr033w (UniProt P38073)
T1 sequence: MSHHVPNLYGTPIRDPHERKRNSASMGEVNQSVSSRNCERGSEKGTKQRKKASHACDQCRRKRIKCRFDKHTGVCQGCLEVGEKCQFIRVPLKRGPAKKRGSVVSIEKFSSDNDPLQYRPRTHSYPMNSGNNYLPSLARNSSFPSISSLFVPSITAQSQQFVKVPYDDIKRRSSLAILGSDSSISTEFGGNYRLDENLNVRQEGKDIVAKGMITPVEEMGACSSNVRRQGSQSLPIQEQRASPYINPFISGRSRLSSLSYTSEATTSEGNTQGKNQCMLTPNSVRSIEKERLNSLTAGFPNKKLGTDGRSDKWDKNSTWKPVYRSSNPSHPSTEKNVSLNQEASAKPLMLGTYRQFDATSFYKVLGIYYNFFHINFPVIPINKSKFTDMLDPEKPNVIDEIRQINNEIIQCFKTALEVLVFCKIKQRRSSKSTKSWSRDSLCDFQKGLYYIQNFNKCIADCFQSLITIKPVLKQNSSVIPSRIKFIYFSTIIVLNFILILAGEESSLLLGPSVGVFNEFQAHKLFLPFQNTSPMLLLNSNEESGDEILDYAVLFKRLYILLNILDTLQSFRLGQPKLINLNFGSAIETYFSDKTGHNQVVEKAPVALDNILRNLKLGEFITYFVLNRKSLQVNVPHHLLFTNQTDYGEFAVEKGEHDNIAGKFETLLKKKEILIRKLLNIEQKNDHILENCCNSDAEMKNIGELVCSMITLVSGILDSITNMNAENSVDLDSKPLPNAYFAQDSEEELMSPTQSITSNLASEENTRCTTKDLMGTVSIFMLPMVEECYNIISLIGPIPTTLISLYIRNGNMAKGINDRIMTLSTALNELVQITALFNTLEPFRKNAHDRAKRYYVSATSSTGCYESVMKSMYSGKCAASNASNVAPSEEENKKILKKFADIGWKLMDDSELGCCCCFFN
Assay: PBM E-score (8-mer binding enrichment) (E-score (-0.5 to 0.5)); higher = stronger / more preferred TF binding; most listed sequences are background and not binding sites
Details: protein concentration: 200 nM; construct: GST-full length
How it was run: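 Yeast transcription factors carrying a GST tag, as full-length proteins or DNA-binding domains, were produced by PURExpress in vitro transcription/translation. About 100-200 nM protein was applied to universal all-10-mer Agilent arrays, double-stranded by primer extension on fresh or once-stripped slides. Bound protein was detected with fluorescent anti-GST, and scans were normalised with masliner. The Universal PBM Analysis Suite gave each ungapped eight-base word, pooled with its reverse complement, an E-score, a modified Wilcoxon-Mann-Whitney statistic.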

Row | Sequence | PBM E-score
1 | CCTATAGG | -0.151
2 | ACACGGAT | 0.0519
3 | CGAGTGTA | -0.102
4 | CGCGAGTC | -0.0881
5 | CTAGGACA | 0.0391
6 | AAGCTTCA | 0.0148
7 | ACAATACT | 0.219
8 | CTTAATCA | 0.187
9 | ACGACATA | -0.0109
10 | AACGTTGC | 0.0686
11 | AGCAGCGA | 0.0113
12 | GCAAACCC | -0.184
13 | AAACGGGT | 0.00668
14 | GTAAGGGA | -0.113
15 | CGTCTGGC | 0.0541
16 | CTACGCAG | -0.0272
17 | GCTGTAAA | 0.181
18 | ATCGCAGC | 0.018
19 | CCGGCAGC | -0.19
20 | AGGCTCCG | -0.113
21 | AAACGGGG | -0.0586
22 | ATACACAA | 0.119

Row | Sequence | PBM E-score
23 | GTCGCCAA | -0.151
24 | GAATTTAA | 0.0723
25 | TCACAACA | 0.178
26 | CACCAACA | -0.0893
27 | AGGTACAG | -0.0511
28 | CATCTGTA | -0.105
29 | AGTGGCTC | -0.0248
30 | AAGAACTA | 0.255
31 | TAGAAACA | 0.0789
32 | TCGAGTCA | -0.0907
33 | GATATTGA | 0.177
34 | ATATGACA | 0.232
35 | ATGTTGGG | -0.175
36 | CATGGCGA | -0.106
37 | CTACCACA | 0.092
38 | CCACTCAA | 0.0248
39 | CCGCCTGC | -0.279
40 | GGGGGAGA | -0.128
41 | ACACCTTC | 0.0699
42 | GCTAGGCA | -0.146
43 | ATTCGACA | 0.0819
44 | AGGACGGC | -0.235

Row | Sequence | PBM E-score
45 | AGCCGCGG | -0.0723
46 | CGGGTTCC | -0.0326
47 | AACTGAAC | 0.0286
48 | TACAGCAA | 0.209
49 | AACCCTTA | 0.115
50 | AGGAAGGA | -0.124
51 | CATAAAAC | 0.0263
52 | CCAGCTGA | -0.0252
53 | AAATTAGG | 0.138
54 | AGGACTAC | -0.141
55 | ACCCAGAA | 0.206
56 | AATAATTC | 0.386
57 | ATCCCTGC | -0.00089
58 | ATAATGAA | 0.331
59 | GCCTCTGA | -0.22
60 | AAGAGTCC | -0.121
61 | ATTTAGGA | 0.192
62 | CAGGCACC | -0.332
63 | CTCGTCAG | -0.109
64 | ACATGCCA | -0.0644
65 | CCGCTCTC | -0.291
66 | CGCCTTGC | -0.183

Row | Sequence | PBM E-score
67 | AGGATTTG | 0.114
68 | TGACGTAA | 5e-05
69 | CGTCTTAG | -0.218
70 | ATAGCAGG | 0.095
71 | CGCTGTAG | -0.0734
72 | AACTCAGG | -0.191
73 | GACCAGAC | -0.0243
74 | ACGCGGAG | -0.11
75 | CGGTCCCC | -0.297
76 | AGGAGATA | -0.00898
77 | GGGCCGTA | -0.157
78 | CACTCGAA | 0.04
79 | GGCTATCA | 0.109
80 | AGGGAGGG | -0.199
81 | AGTAGTGA | 0.118
82 | AGAGGGAT | -0.168
83 | CTCTACCA | -0.0398
84 | GCGGACAA | 0.201
85 | AGTATGCA | 0.0339
86 | AAGAGTTG | 0.125
